From PubChem BioAssay AID256 (DTP/NCI, 2004) come the findings set out here.

This test has as its system CD2F1 mice, L1210 leukemia ip, survival T/C. Briefly: NCI In Vivo Anticancer Drug Screen. Data for tumor model L1210 Leukemia (intraperitoneal) in CD2F1 (CDF1) mice. The settings on record: endpoint: median survival time; dose: 4.0 mg/kg/injection; schedule: Q04DX003 (ip); vehicle: other; higher = longer survival. As to the method:
The antitumor activity of compounds was measured in mice bearing transplantable tumors. Survival or tumor size were measured and the results are expressed as the measurement made in the treated group (T) divided by the measurement made in the vehicle treated control group (C). The tumor model used in this assay is L1210 Leukemia (intraperitoneal) in CD2F1 (CDF1) mice

The structures appear in SMILES notation. Inconclusive results and toxic doses are left out. Some entries of the source have several records that differ or are many. This is not the full list of results. An entry can have further records. Values that stand side by side do not match, cause unknown; they may come from other doses, times, organisms or constructs than stated.

On to `COc1cc(NS(C)(=O)=O)ccc1Nc1c2ccccc2nc2ccccc12`, for which the T/C is 118 % of control and 150 % of control.
